The values that follow come from US9804165 (MOR NUCO ENTERPRISES, dated 2017).

In one assay the target is Ref 3 (human). The experiment in a line: 2-D gel western blot of cancer sera (Table 4). (Immunoblotting shows a protein as a band on a membrane.)
The target in assay [1] is T1, serotransferrin (79-85 kDa, isoelectric point pH 6.8 reference protein of serum) (human, UniProt P02787).
T1 construct: also called serrotransferrin
Briefly: 2-D gel western blot of cancer sera (Table 4).

T1 sequence (P02787 20-698 limits assumed): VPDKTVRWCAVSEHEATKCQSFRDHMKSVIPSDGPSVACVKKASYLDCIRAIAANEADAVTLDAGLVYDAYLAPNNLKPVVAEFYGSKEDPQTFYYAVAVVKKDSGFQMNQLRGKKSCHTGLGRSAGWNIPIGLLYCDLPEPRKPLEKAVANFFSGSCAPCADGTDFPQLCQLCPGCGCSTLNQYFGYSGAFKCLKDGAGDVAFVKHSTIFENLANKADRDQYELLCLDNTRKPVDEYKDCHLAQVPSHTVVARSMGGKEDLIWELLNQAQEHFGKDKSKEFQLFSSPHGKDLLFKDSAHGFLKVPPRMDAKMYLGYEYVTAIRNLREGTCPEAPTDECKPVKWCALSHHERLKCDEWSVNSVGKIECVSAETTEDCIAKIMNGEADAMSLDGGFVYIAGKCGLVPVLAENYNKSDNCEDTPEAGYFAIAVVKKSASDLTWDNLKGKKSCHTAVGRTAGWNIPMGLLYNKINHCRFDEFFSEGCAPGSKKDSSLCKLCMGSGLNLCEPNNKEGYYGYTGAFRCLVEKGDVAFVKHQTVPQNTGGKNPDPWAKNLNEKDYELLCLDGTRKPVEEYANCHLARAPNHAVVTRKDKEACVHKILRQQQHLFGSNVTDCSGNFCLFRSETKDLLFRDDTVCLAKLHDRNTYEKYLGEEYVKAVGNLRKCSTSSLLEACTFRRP

B1: scFv(S)(GST) with Gly.Ser.Cys linker [scFv(SC)] (scFv)
scFv: [about 200 residues omitted]SDLVPRGSPGIPEVKLQESGTEVVKPGASVKLSCKASGYIFTSYDIDWVRQTPEQGLEWIGWIFPGEGSTEYNEKFKGRATLSVDKSSSTAYMELTRLTSEDSAVYFCARGDYYRRYFDLWGQGTTVTVSSGGGGSCGGGSCGGGSENVLTQSPAIMSASPGERVTMTCSASSSIRYIYWYQQKPGSSPRLLIYDTSNVAPGVPFRFSGSGSGTSYSLTINRMEAEDAATYYCQEWSGYPYTFGGGTKLELKA
notes: also called functionalized scFv recombinant antibody; ScFV with -CXXC-XX-C linker; not shown: not p
As for B1, the “fold signal, storage in 50% glycerol against absence of glycerol” value (with Ref 3; in assay [1]) was approximately 2 fold each time.
